Test results: a compilation of properties of binary mixtures (doi:10.1007/s10973-016-5820-0)
The densities may have been worked out from excess volumes.

Assay: xn = mol fraction of the nth substance listed
Conditions: 100 kPa

O=C1CCCCC1 + CCCC[n+]1ccn(C)c1.F[B-](F)(F)F
mass density [kg/m3]
Conditions	293.15 K	298.15 K	303.15 K	308.15 K
x2 = 0	947.4	–	938.1	933.2
x2 = 0.0736	981.2	977	972.4	–
x2 = 0.1128	997.8	993.7	–	–
x2 = 0.1597	1016.4	–	1008.2	1004
x2 = 0.2045	–	1029.2	1025.1	1021
x2 = 0.2459	–	1043.7	1039.7	1035.7
x2 = 0.2933	1063.1	–	–	1051.5
x2 = 0.3481	1079.7	1075.8	1072.1	–
x2 = 0.3956	1093	1089.2	1085.5	1081.8
x2 = 0.4429	1105.3	1101.5	1097.9	1094.3
x2 = 0.4937	1117.6	1113.8	1110.3	1106.6
x2 = 0.5344	1126.8	1122.9	1119.5	1115.9
x2 = 0.5938	1139.2	1135.3	1131.9	1128.4
x2 = 0.6557	1151	1147.2	–	1140.3
x2 = 0.7028	1159.3	1155.5	1152.1	1148.7
x2 = 0.7409	1165.7	1161.8	–	–
x2 = 0.7973	1174.6	1170.7	1167.3	1163.9
x2 = 0.8564	1183.4	1179.4	1176	1172.6
x2 = 0.9047	1190.2	1186.2	1182.7	–

CCCC[n+]1ccn(C)c1.F[B-](F)(F)F + O=C1CCCCC1
x1 = 1
Conditions	mass density [kg/m3]
293.15 K	1203.1
298.15 K	1198.9
303.15 K	1195.3
308.15 K	1191.7
